Experimental data taken from a collection of fitness landscapes (doi:10.1126/science.1257360).
This is one part of the list.

B1: PhoQ; a variant is named by its letters at X, in order, P23837 (parent)
chain: MKKLLRLFFPLSLRVRFLLATAAVVLVLSLAYGMVALIGYSVSFDKTTFRLLRGESNLFYTLAKWENNKLHVELPENIDKQSPTMTLIYDENGQLLWAQRDVPWLMKMIQPDWLKSNGFHEIEADVNDTSLLLSGDHSIQQQLQEVREDDDDAEMTHSVAVNVYPATSRMPKLTIVVVDTIPVELKSSYMVWSWFIYVLSANLLLVIPLLWVAAWWSLRPIEALAKEVRELEEHNRELLNPATTRELTSLVRNLNRLLKSERERYDKYRTTLTDLTHSLKTPLXXLQXXLRSLRSEKMSVSDAEPVMLEQISRISQQIGYYLHRASMRGGTLLSRELHPVAPLLDNLTSALNKVYQRKGVNISLDISPEISFVGEQNDFVEVMGNVLDNACKYCLEFVEISARQTDEHLYIVVEDDGPGIPLSKREVIFDRGQRVDTLRPGQGVGLAVAREITEQYEGKIVAGESMLGGARMEVIFGRQHSAPKDE

Variants of: B1
Experiment: enrichment ratio after two sorts for PhoP signalling (ratio (wild type AVST 3.29)); higher = more functional
Conditions: with PhoP (E. coli)

| Variant | enrichment ratio |
| --- | --- |
| INTR | ≤ 0.25 |
| KMQH | ≤ 0.25 |
| RCWW | ≤ 0.25 |
| IKEQ | ≤ 0.25 |
| KVWC | ≤ 0.25 |
| LSGN | ≤ 0.25 |
| PPCH | ≤ 0.25 |
| PKGQ | ≤ 0.25 |
| VETQ | ≤ 0.25 |
| YRQP | ≤ 0.25 |
| FDSQ | ≤ 0.25 |
| NTDH | ≤ 0.25 |
| EFYA | ≤ 0.25 |
| HAAW | ≤ 0.25 |
| VKRT | ≤ 0.25 |
| IAPH | ≤ 0.25 |
| IDFN | ≤ 0.25 |
| ENIM | ≤ 0.25 |
| EYMS | ≤ 0.25 |
| HSGH | ≤ 0.25 |
| QNFK | ≤ 0.25 |
| WYNE | ≤ 0.25 |
| ETMP | ≤ 0.25 |
| TAQT | 7.05 |
| GWGF | ≤ 0.25 |

| Variant | enrichment ratio |
| --- | --- |
| FVAT | ≤ 0.25 |
| GRNA | ≤ 0.25 |
| TLKV | 48.4 |
| QYPM | ≤ 0.25 |
| NDCR | ≤ 0.25 |
| MMFG | ≤ 0.25 |
| AQCQ | 31.6 |
| FPRI | ≤ 0.25 |
| IMYN | ≤ 0.25 |
| YCWE | ≤ 0.25 |
| FSWF | 0.273 |
| MNSE | ≤ 0.25 |
| MQQV | ≤ 0.25 |
| RCYN | ≤ 0.25 |
| LWMC | ≤ 0.25 |
| VQLP | ≤ 0.25 |
| DNDP | ≤ 0.25 |
| ELHT | ≤ 0.25 |
| MINF | ≤ 0.25 |
| FCSC | ≤ 0.25 |
| DCVW | ≤ 0.25 |
| NGWI | ≤ 0.25 |
| WICK | ≤ 0.25 |
| WSLA | ≤ 0.25 |
| PHIH | ≤ 0.25 |

| Variant | enrichment ratio |
| --- | --- |
| TRLL | 9.72 |
| SCAW | 1.61 |
| VFCV | ≤ 0.25 |
| AVLD | ≤ 0.25 |
| YFMG | ≤ 0.25 |
| DMDC | ≤ 0.25 |
| WCCK | ≤ 0.25 |
| DSRV | ≤ 0.25 |
| VNCS | ≤ 0.25 |
| FDNI | ≤ 0.25 |
| VRLV | ≤ 0.25 |
| THGC | 5.27 |
| RNQY | ≤ 0.25 |
| HIFI | ≤ 0.25 |
| QDLS | ≤ 0.25 |
| QFSQ | ≤ 0.25 |
| NRGW | ≤ 0.25 |
| MSHQ | 12 |
| HRLG | ≤ 0.25 |
| HSRN | ≤ 0.25 |
| PMIY | ≤ 0.25 |
| TLEP | ≤ 0.25 |
| SQNN | 1.32 |
| NGVY | ≤ 0.25 |
| RCVY | ≤ 0.25 |

| Variant | enrichment ratio |
| --- | --- |
| WVCL | ≤ 0.25 |
| MYLY | ≤ 0.25 |
| KGSA | ≤ 0.25 |
| HNHY | ≤ 0.25 |
| DTVK | ≤ 0.25 |
| TYKF | ≤ 0.25 |
| WQAI | ≤ 0.25 |
| MFRG | ≤ 0.25 |
| YLDH | ≤ 0.25 |
| TNSM | 23.5 |
| KQDV | ≤ 0.25 |
| DGRN | ≤ 0.25 |
| YEIL | ≤ 0.25 |
| EFPH | ≤ 0.25 |
| PQIV | ≤ 0.25 |
| AAMP | ≤ 0.25 |
| FSYI | 1.45 |
| TGQL | 5.01 |
| FAMG | 2.98 |
| CRWA | ≤ 0.25 |
| PTYI | ≤ 0.25 |
| RMYE | ≤ 0.25 |
| QPGT | ≤ 0.25 |
| RYCP | ≤ 0.25 |
| MDQH | ≤ 0.25 |

| Variant | enrichment ratio |
| --- | --- |
| RHLF | ≤ 0.25 |
| NNQR | ≤ 0.25 |
| IVRN | ≤ 0.25 |
| MCSQ | 11.6 |
| HGAW | ≤ 0.25 |
| LYFA | ≤ 0.25 |
| RHFP | ≤ 0.25 |
| NRLR | ≤ 0.25 |
| QHGL | ≤ 0.25 |
| IFEI | ≤ 0.25 |
| TPKD | ≤ 0.25 |
| QWCL | ≤ 0.25 |
| NEWH | ≤ 0.25 |
| LTYG | ≤ 0.25 |
| YVCQ | 0.277 |
| NGNC | ≤ 0.25 |
| SQED | ≤ 0.25 |
| GDWF | ≤ 0.25 |
| VGFQ | ≤ 0.25 |
| NHVE | ≤ 0.25 |
| GNEG | ≤ 0.25 |
| PLCT | ≤ 0.25 |
| FEGI | ≤ 0.25 |
| MPIV | ≤ 0.25 |
| IRTT | ≤ 0.25 |

| Variant | enrichment ratio |
| --- | --- |
| ESAW | ≤ 0.25 |
| MDRA | ≤ 0.25 |
| GGWS | ≤ 0.25 |
| DCGK | ≤ 0.25 |
| ANHS | ≤ 0.25 |
| QDKM | ≤ 0.25 |
| THKC | ≤ 0.25 |
| YHWG | ≤ 0.25 |
| WARE | ≤ 0.25 |
| WKYP | ≤ 0.25 |
| PTWM | ≤ 0.25 |
| QSHT | ≤ 0.25 |
| SNYA | ≤ 0.25 |
| HDVR | ≤ 0.25 |
| INWQ | ≤ 0.25 |
| KNHK | ≤ 0.25 |
| NMIQ | ≤ 0.25 |
| RWDV | ≤ 0.25 |
| RANL | ≤ 0.25 |
| FRLQ | ≤ 0.25 |
| SGGE | ≤ 0.25 |
| IIGD | ≤ 0.25 |
| QCDR | ≤ 0.25 |
| MQIT | ≤ 0.25 |
| TEYF | 2.14 |

| Variant | enrichment ratio |
| --- | --- |
| QSCA | ≤ 0.25 |
| KEPL | ≤ 0.25 |
| GNQI | ≤ 0.25 |
| SISR | 6.33 |
| THKK | ≤ 0.25 |
| GPFP | ≤ 0.25 |
| WMGC | ≤ 0.25 |
| AMPY | ≤ 0.25 |
| ILVM | ≤ 0.25 |
| MSGR | ≤ 0.25 |
| PPVW | ≤ 0.25 |
| DIRN | ≤ 0.25 |
| QVNG | 7.72 |
| IQSD | ≤ 0.25 |
| MNEL | ≤ 0.25 |
| DTQW | ≤ 0.25 |
| NCMY | ≤ 0.25 |
| SGFV | 0.722 |
| DVPR | ≤ 0.25 |
| RRHI | ≤ 0.25 |
| KYIM | ≤ 0.25 |
| LLWW | ≤ 0.25 |
| TQGP | ≤ 0.25 |
| MQQR | ≤ 0.25 |
| IMTQ | ≤ 0.25 |

| Variant | enrichment ratio |
| --- | --- |
| VFLD | ≤ 0.25 |
| VSCL | 7.25 |
| SPLD | ≤ 0.25 |
| EPPW | ≤ 0.25 |
| RMPI | ≤ 0.25 |
| EMSL | ≤ 0.25 |
| VMDE | ≤ 0.25 |
| VAWA | ≤ 0.25 |
| PRNH | ≤ 0.25 |
| YFWL | ≤ 0.25 |
| QFMM | ≤ 0.25 |
| LQEG | ≤ 0.25 |
| ECVT | ≤ 0.25 |
| YRWQ | ≤ 0.25 |
| VYAM | ≤ 0.25 |
| LTNA | ≤ 0.25 |
| KCAM | ≤ 0.25 |
| NYNP | ≤ 0.25 |
| DKSA | ≤ 0.25 |
| NTWL | ≤ 0.25 |
